# About 16,000 (4.4%) of roughly 360,000 compounds were called active. This list was built around the results that the source calls inconclusive (neither active nor inactive); the mix of calls is not that of the screen. Calls come from the whole dose curve; as a rule, active = well fitted inhibition curve with a large enough effect; inconclusive = small, poorly fitted or top-dose-only effect; inactive = no such curve, though single readings can be large or run the other way. Potencies beside an inconclusive call are fits to weak or partial responses and may not hold up.
# Biological target: Bromodomain adjacent to zinc finger domain protein 2B (Homo sapiens) (UniProt Q9UIF8)
# UniProt Q9UIF8, sequence (Q9UIF8 whole entry, looked up, the tested form may be a part): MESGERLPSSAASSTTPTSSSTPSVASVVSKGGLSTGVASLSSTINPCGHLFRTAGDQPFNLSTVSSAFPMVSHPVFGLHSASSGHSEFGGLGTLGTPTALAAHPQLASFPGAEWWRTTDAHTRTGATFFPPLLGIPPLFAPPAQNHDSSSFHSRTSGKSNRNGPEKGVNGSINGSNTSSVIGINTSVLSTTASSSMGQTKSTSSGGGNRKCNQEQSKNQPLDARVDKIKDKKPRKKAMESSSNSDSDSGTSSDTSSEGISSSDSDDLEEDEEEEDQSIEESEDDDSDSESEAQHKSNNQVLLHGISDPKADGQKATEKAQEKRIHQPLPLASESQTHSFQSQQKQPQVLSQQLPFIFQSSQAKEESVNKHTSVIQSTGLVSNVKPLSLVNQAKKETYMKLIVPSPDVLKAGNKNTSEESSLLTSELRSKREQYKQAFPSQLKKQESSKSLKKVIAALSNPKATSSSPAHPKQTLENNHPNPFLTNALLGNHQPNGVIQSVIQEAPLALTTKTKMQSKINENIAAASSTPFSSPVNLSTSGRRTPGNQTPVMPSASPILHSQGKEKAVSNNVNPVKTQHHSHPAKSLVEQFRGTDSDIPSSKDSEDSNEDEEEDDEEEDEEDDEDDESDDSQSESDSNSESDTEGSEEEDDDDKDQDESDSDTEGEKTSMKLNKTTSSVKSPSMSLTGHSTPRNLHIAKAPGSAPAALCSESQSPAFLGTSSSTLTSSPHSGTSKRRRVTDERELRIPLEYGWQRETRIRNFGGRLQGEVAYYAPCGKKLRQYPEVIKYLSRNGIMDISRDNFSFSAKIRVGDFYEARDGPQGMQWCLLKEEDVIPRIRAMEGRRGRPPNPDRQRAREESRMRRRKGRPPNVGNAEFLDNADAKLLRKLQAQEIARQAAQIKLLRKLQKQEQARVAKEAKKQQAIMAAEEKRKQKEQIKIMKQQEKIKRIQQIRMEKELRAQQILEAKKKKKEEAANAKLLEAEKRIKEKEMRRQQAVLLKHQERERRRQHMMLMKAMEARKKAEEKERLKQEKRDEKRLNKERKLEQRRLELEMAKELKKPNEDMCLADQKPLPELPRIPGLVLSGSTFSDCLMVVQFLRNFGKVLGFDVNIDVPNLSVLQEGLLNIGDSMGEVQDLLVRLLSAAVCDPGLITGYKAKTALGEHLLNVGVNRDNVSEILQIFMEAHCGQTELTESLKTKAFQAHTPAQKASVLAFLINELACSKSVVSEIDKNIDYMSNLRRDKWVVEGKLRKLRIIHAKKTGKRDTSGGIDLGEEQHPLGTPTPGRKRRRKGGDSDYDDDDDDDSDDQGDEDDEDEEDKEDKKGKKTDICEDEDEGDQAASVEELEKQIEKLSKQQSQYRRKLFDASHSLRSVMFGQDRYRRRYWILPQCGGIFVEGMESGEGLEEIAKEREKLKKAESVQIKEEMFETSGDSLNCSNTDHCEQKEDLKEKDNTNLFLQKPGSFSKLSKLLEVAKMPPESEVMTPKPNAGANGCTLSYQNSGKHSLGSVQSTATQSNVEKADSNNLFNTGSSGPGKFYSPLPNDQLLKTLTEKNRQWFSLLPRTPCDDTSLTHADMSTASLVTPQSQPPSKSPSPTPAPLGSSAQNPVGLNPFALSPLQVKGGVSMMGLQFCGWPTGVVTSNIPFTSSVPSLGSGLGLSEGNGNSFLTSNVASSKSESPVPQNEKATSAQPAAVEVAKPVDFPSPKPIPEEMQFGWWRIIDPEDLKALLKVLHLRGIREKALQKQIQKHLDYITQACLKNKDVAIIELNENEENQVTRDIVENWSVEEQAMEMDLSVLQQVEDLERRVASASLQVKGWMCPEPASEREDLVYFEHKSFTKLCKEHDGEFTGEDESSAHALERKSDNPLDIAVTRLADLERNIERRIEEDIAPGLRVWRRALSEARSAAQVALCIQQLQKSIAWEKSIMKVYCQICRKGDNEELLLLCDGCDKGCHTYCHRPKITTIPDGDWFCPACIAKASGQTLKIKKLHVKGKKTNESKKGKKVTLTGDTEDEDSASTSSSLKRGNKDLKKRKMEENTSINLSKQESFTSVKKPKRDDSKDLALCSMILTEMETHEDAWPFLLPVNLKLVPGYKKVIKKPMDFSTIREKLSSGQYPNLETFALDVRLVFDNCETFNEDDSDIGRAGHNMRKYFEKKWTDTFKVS
# Assay: qHTS Assay for Inhibitors of BAZ2B; note: nearly all actives have a fitted effect of over 60% in size
# Conditions: AlphaScreen BAZ2B-H3K14Ac peptide displacement; series mostly up to 114 µM
# Procedure, shortened: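 In this displacement format the biotinylated H3(5-23) peptide acetylated at Lys14 serves as ligand at 50 nM, with BAZ2B at 50 nM in PBS pH 7.4 containing 0.01% Tween-20. Donor and acceptor beads are 10 ug/mL final.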
# Potency is the fitted concentration of half-maximal effect; tags give direction and shape of the fitted curve.
row,Structure (SMILES),Potency
1,CS(=O)(=O)c1ccccc1-c1nnc(NC(=O)c2cccc(N3C(=O)CCC3=O)c2)o1,active: 79.4 µM
2,CC1(C)Cc2c(sc(NC(=S)NC(=O)c3ccccc3)c2C(=O)O)CO1,"inconclusive: 50.1 µM [inhibitor, partial curve]"
3,NCCc1ccc(O)c(O)c1,"inconclusive: 63.1 µM [inhibitor, partial curve, poor fit]"
4,CCOC(=O)c1cc2ccccc2nc1C,"inconclusive: 89.1 µM [inhibitor, single point]"
5,CC(C)Oc1ccc(/C(O)=C2/C(=O)C(=O)N(CCN(C)C)C2c2ccco2)cc1 (stereo not given),"inconclusive: 89.1 µM [inhibitor, single point]"
6,CCc1ccc(Nc2ccc(S(=O)(=O)N3CCOCC3)cc2[N+](=O)[O-])cc1,active: 11.2 µM
7,COc1ccc(OC)c(NC(=O)c2ccc(N3C(=O)C4CC=C(C)CC4C3=O)cc2)c1 (stereo not given),"inconclusive: 89.1 µM [inhibitor, single point]"
8,O=C(N/N=C/c1cccc2cccnc12)c1ccccc1O,active: 7.08 µM
9,Cc1cc(N/N=C/c2ccc(Cl)cc2)nc(NCc2ccccc2)n1,"inconclusive: 35.5 µM [inhibitor, single point]"
10,O=C(O)C1=C[C@H](c2ccc(F)cc2)C[C@H](OCCCCO)O1,active: 79.4 µM
11,COc1cc(OC)c(NS(=O)(=O)c2cc(C(=O)OCC(=O)NCC3CCCO3)ccc2OC)cc1Cl (stereo not given),inactive
12,COc1ccc(O)c(/C=N/NC(=O)c2cc(=O)[nH]c3ccccc23)c1,"inconclusive: 56.2 µM [inhibitor, partial curve]"
13,O=C(C[n+]1ccncc1)c1ccccc1,"inconclusive: 89.1 µM [inhibitor, single point]"
14,Cc1ccc(S(=O)(=O)NC(=O)c2cc(C)n(CCCn3ccnc3)c2C)cc1,active: 31.6 µM
15,COc1ccc(-c2[nH]ncc2N=Nc2ccccc2)cc1,active: 35.5 µM
16,Cc1[nH]c2ccccc2c1CCNC(=O)CCC(=O)c1ccccc1,"inconclusive: 50.1 µM [inhibitor, partial curve]"
17,C=CCNCC(O)COc1ccc(C(C)=O)cc1OC (stereo not given),active: 50.1 µM
18,N#CC1=C(N)OC2=C(CCc3ccccc32)C1c1ccccc1Cl (stereo not given),"inconclusive: 79.4 µM [inhibitor, single point]"
19,COC(=O)c1ccc2c(c1O)C(=O)c1ccccc1C2=O,"inconclusive: 7.94 µM [inhibitor, full curve]"
20,CCOC(=O)C(Cc1ccc(NC(=O)/C(=C/c2ccc(OC(C)=O)cc2)NC(C)=O)cc1)N1C(=O)c2ccccc2C1=O (stereo not given),inactive
